Measurements as given in patent publication US20190367516A1 (Bayer Pharma Aktiengesellschaft, priority 2015, published 2019).

target: T1, human M2 receptor (Homo sapiens, UniProt P08172); conditions: read-out: Efficiency, M2-GIRK1/4 activation test; boosting of the acetylcholine effect at an EC20 acetylcholine concentration
T1 sequence (P08172 1-466): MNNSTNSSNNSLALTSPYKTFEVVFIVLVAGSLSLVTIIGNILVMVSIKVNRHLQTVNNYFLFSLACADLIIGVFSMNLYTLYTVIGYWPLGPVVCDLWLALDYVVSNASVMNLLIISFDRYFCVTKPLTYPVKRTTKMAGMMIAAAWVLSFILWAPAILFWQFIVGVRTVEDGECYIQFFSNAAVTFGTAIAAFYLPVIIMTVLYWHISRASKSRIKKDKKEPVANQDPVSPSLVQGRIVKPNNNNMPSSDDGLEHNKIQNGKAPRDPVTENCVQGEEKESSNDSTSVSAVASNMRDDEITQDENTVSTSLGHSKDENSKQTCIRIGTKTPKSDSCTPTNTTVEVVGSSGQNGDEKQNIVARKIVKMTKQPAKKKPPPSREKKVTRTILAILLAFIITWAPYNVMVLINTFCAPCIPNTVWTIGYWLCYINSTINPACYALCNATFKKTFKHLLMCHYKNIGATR

SMILES | Emax [%]
O=C(NC(c1ccccc1Cl)C(F)(F)F)c1cn(-c2ccc(F)cc2F)c2nc(N3CCCC(O)C3=O)ccc2c1=O (racemic) [Example 206, rac-N-[(1R)-(2-Chlorophenyl)-2,2,2-trifluoroethyl]-1-(2,4-difluorophenyl)-7-[3-hydroxy-2-oxopiperidin-1-yl]-4-oxo-1,4-dihydro-1,8-naphthyridine-3-carboxamide] | 95.8
O=C(NC(c1ccccc1Cl)C(F)(F)F)c1cn(-c2ccc(F)cc2F)c2nc(N3C[C@@H](O)CC3=O)ccc2c1=O (mixture of isomers) [Example 211, N-[1-(2-Chlorophenyl)-2,2,2-trifluoroethyl]-1-(2,4-difluorophenyl)-7-[(4S)-4-hydroxy-2-oxopyrrolidin-1-yl]-4-oxo-1,4-dihydro-1,8-naphthyridine-3-carboxamide] | 94.8
CC(NC(=O)c1cn(-c2ccc(F)cc2F)c2nc(N3C[C@@H](O)CC3=O)ccc2c1=O)c1c(F)cccc1F (mixture of isomers) [Example 214, 1-(2,4-Difluorophenyl)-N-[1-(2,6-difluorophenyl)ethyl]-7-[(4S)-4-hydroxy-2-oxopyrrolidin-1-yl]-4-oxo-1,4-dihydro-1,8-naphthyridine-3-carboxamide] | 97
CC(COC(F)(F)F)NC(=O)c1cn(-c2ccc(F)cc2F)c2nc(N3CC[C@H](F)C3)ccc2c1=O (mixture of isomers) [Example 227, 1-(2,4-Difluorophenyl)-7-[(3S)-3-fluoropyrrolidin-1-yl]-4-oxo-N-[1-(trifluoromethoxy)propan-2-yl]-1,4-dihydro-1,8-naphthyridine-3-carboxamide] | 89.5
CC(COC(F)(F)F)NC(=O)c1cn(-c2ccc(F)cc2F)c2nc(N3CCCC3=O)ccc2c1=O (racemic) [Example 230, rac-1-(2,4-Difluorophenyl)-4-oxo-7-(2-oxopyrrolidin-1-yl)-N-[1-(trifluoromethoxy)propan-2-yl]-1,4-dihydro-1,8-naphthyridine-3-carboxamide] | 66.3
CC(COC(F)(F)F)NC(=O)c1cn(-c2ccc(F)cc2F)c2nc(N3CCCC3)ccc2c1=O (racemic) [Example 232, 1-(2,4-Difluorophenyl)-4-oxo-7-(pyrrolidin-1-yl)-N-[1-(trifluoromethoxy)propan-2-yl]-1,4-dihydro-1,8-naphthyridine-3-carboxamide] | 91.8
O=C(NC(COC(F)(F)F)c1ccccc1)c1cn(-c2ccc(F)cc2F)c2nc(N3C[C@@H](O)CC3=O)ccc2c1=O (mixture of isomers) [Example 233, 1-(2,4-Difluorophenyl)-7-[(4S)-4-hydroxy-2-oxopyrrolidin-1-yl]-4-oxo-N-[1-phenyl-2-(trifluoromethoxy)ethyl]-1,4-dihydro-1,8-naphthyridine-3-carboxamide] | 100
O=C(NC(c1c(F)cccc1F)C(F)(F)F)c1cn(-c2ccc(F)cc2F)c2nc(N3CC[C@H](F)C3)ccc2c1=O (mixture of isomers) [Example 241, 1-(2,4-Difluorophenyl)-N-[1-(2,6-difluorophenyl)-2,2,2-trifluoroethyl]-7-[(3S)-3-fluoropyrrolidin-1-yl]-4-oxo-1,4-dihydro-1,8-naphthyridine-3-carboxamide] | 95.8
O=C(NC(c1c(F)cccc1F)C(F)(F)F)c1cn(-c2ccc(F)cc2F)c2nc(N3C[C@@H](O)CC3=O)ccc2c1=O (mixture of isomers) [Example 244, 1-(2,4-Difluorophenyl)-N-[1-(2,6-difluorophenyl)-2,2,2-trifluoroethyl]-7-[(4S)-4-hydroxy-2-oxopyrrolidin-1-yl]-4-oxo-1,4-dihydro-1,8-naphthyridine-3-carboxamide] | 93.7
O=C(NC(c1c(F)cccc1F)C(F)(F)F)c1cn(-c2ccc(F)cc2F)c2nc(N3CCC(O)CC3=O)ccc2c1=O (racemic) [Example 252, rac-1-(2,4-Difluorophenyl)-N-[1-(2,6-difluorophenyl)-2,2,2-trifluoroethyl]-7-[4-hydroxy-2-oxopiperidin-1-yl]-4-oxo-1,4-dihydro-1,8-naphthyridine-3-carboxamide] | 95.5
CC[C@@H](NC(=O)c1cn(-c2c(F)cc(F)cc2F)c2nc(N3CCC(O)C3=O)ccc2c1=O)C(F)(F)F (mixture of isomers) [Example 280, 7-[3-Hydroxy-2-oxopyrrolidin-1-yl]-4-oxo-N-[(2R)-1,1,1-trifluorobutan-2-yl]-1-(2,4,6-trifluorophenyl)-1,4-dihydro-1,8-naphthyridine-3-carboxamide] | 96.5
O=C(NC(C1CC1)C(F)(F)F)c1cn(-c2ccc(F)cc2F)c2nc(N3C[C@@H](O)CC3=O)ccc2c1=O (mixture of isomers) [Example 283] | 97
O=C(NC(c1ccccc1Cl)C(F)(F)F)c1cn(-c2ccccc2F)c2nc(N3CCC(O)C3=O)ccc2c1=O (racemic) [Example 287, N-[1-(2-Chlorophenyl)-2,2,2-trifluoroethyl]-1-(2-fluorophenyl)-7-[3-hydroxy-2-oxopyrrolidin-1-yl]-4-oxo-1,4-dihydro-1,8-naphthyridine-3-carboxamide] | 94.8
O=C(NC(C1CC1)C(F)(F)F)c1cn(-c2c(F)cccc2F)c2nc(N3C[C@@H](O)CC3=O)ccc2c1=O (mixture of isomers) [Example 295, N-[1-Cyclopropyl-2,2,2-trifluoroethyl]-1-(2,6-difluorophenyl)-7-[(4S)-4-hydroxy-2-oxopyrrolidin-1-yl]-4-oxo-1,4-dihydro-1,8-naphthyridine-3-carboxamide] | 100

Results, then the compound that gave them:

Emax [%] | SMILES
92.5 | CCC(NC(=O)c1cn(-c2ccccc2F)c2nc(N(C)C)ccc2c1=O)C(F)(F)F (racemic) [Example 204, rac-7-(Dimethylamino)-1-(2-fluorophenyl)-4-oxo-N-[1,1,1-trifluorobutan-2-yl]-1,4-dihydro-1,8-naphthyridine-3-carboxamide]
97.5 | CC[C@@H](NC(=O)c1cn(-c2ccc(F)cc2F)c2nc(N3CC4CNC(=O)C4C3)ccc2c1=O)C(F)(F)F (mixture of isomers) [Example 221, 1-(2,4-Difluorophenyl)-4-oxo-7-[4-oxohexahydrpyrrolo[3,4-c]pyrrol-2(1H)-yl]-N-[(2R)-1,1,1-trifluorobutan-2-yl]-1,4-dihydro-1,8-naphthyridine-3-carboxamide]
97.5 | CC[C@@H](NC(=O)c1cn(-c2ccc(F)cc2F)c2nc(N3CCC(O)C3=O)ccc2c1=O)C(F)(F)F (mixture of isomers) [Example 224, 1-(2,4-Difluorophenyl)-7-[3-hydroxy-2-oxopyrrolidin-1-yl]-4-oxo-N-[(2R)-1,1,1-trifluorobutan-2-yl]-1,4-dihydro-1,8-naphthyridine-3-carboxamide]
95.4 | CC(COC(F)(F)F)NC(=O)c1cn(-c2ccc(F)cc2F)c2nc(N(C)C)ccc2c1=O (racemic) [Example 231, 1-(2,4-Difluorophenyl)-7-(dimethylamino)-4-oxo-N-[1-(trifluoromethoxy)propan-2-yl]-1,4-dihydro-1,8-naphthyridine-3-carboxamide]
96.5 | CC[C@@H](NC(=O)c1cn(-c2c(F)cccc2F)c2nc(N3CC(CO)OC3=O)ccc2c1=O)C(F)(F)F (mixture of isomers) [Example 260, rac-1-(2,6-Difluorophenyl)-7-[5-(hydroxymethyl)-2-oxo-1,3-oxazolidin-3-yl]-4-oxo-N-[(2R)-1,1,1-trifluorobutan-2-yl]-1,4-dihydro-1,8-naphthyridine-3-carboxamide]
68.5 | CC[C@@H](NC(=O)c1cn(-c2ccc(F)cc2F)c2nc(N3CCOC(C(F)F)C3)ccc2c1=O)C(F)(F)F (mixture of isomers) [Example 263, 7-[2-(Difluoromethyl)morpholin-4-yl]-1-(2,4-difluorophenyl)-4-oxo-N-[(2R)-1,1,1-trifluorobutan-2-yl]-1,4-dihydro-1,8-naphthyridine-3-carboxamide]
100 | CC[C@@H](NC(=O)c1cn(-c2ccc(F)cc2F)c2nc(N3CC4CC4(O)C3)ccc2c1=O)C(F)(F)F (mixture of isomers) [Example 267, 1-(2,4-Difluorophenyl)-7-[1-hydroxy-3-azabicyclo[3.1.0]hex-3-yl]-4-oxo-N-[(2R)-1,1,1-trifluorobutan-2-yl]-1,4-dihydro-1,8-naphthyridine-3-carboxamide]
100 | CC[C@@H](NC(=O)c1cn(-c2c(F)cccc2F)c2nc(N3CCC(C)(O)C3)ccc2c1=O)C(F)(F)F (mixture of isomers) [Example 276, 1-(2,6-Difluorophenyl)-7-[3-hydroxy-3-methylpyrrolidin-1-yl]-4-oxo-N-[(2R)-1,1,1-trifluorobutan-2-yl]-1,4-dihydro-1,8-naphthyridine-3-carboxamide]
90.5 | CC[C@@H](NC(=O)c1cn(-c2c(F)cccc2F)c2nc(N3CCC(O)C3=O)ccc2c1=O)C(F)(F)F (mixture of isomers) [Example 292, 1-(2,6-Difluorophenyl)-7-[3-hydroxy-2-oxopyrrolidin-1-yl]-4-oxo-N-[(2R)-1,1,1-trifluorobutan-2-yl]-1,4-dihydro-1,8-naphthyridine-3-carboxamide]
95.5 | CC[C@@H](NC(=O)c1cn(-c2ccc(F)cc2F)c2nc(N3CC(C)CC3=O)ccc2c1=O)C(F)(F)F (mixture of isomers) [Example 301, 1-(2,4-Difluorophenyl)-7-[4-methyl-2-oxopyrrolidin-1-yl]-4-oxo-N-[(2R)-1,1,1-trifluorobutan-2-yl]-1,4-dihydro-1,8-naphthyridine-3-carboxamide]
